In publication PMC12136788:
Some of the results follow.

T1: UNK ZnF1-6 (called full-length) (human, UniProt Q9C0B0 30-357)
T1 sequence: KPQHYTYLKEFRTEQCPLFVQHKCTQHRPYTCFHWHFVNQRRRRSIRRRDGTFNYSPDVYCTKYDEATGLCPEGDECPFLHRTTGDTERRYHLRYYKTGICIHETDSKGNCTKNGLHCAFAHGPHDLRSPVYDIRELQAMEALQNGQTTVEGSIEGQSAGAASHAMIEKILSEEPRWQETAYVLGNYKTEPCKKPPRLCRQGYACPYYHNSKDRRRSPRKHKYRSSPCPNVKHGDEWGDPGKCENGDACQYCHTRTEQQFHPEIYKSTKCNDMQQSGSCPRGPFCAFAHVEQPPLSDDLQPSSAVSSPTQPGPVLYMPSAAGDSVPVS

B1: chr15:85746268:85746369:+|3pUTR|ENSG00000170776|msi1|total|mutant (ssRNA)
RNA: GGGAGUUCUACAGUCCGACGAUCUGUUUUAUUUAUUGUAUUUGUGUGUUUGUGUUUGUUUUUUUUUAAGGGUGAGCCAGGUCCCGCCCAACAGUCUAAACUAUCCAGUCAAUACCGAGUGAAGUGGCAGCCAGCACUGUUCACCAACAGAGGAUUGAGCAUCA
B2: chr5:72207927:72208036:+|3pUTR|ENSG00000131711|msi1_unk|FALSE|overlapping (ssRNA)
RNA: GGGAGUUCUACAGUCCGACGAUCUUUUUUUUUUUUUUUUUUUGCUAUGGGAUUUAAUGGGAAAAAUAUGUAAAAACUGUCACUAGUCAGCUGGCUCUUUUUCCUAUGAAAUCUAUCAGUACCUUUCUCCAUCCGUUGUUCUCACAACAGAGGAUUGAGCAUCA
B3: chr5:141515350:141515460:-|3pUTR|ENSG00000131504|msi1_unk|FALSE|overlapping (ssRNA)
RNA: GGGAGUUCUACAGUCCGACGAUCCUCAGCUUUCCAUCCCCAGCUAGGAAGAAAGAAUGGCACUCUUGGGCUUGGCCCAGAAUUAGAGUUAUUAGAGCAAGAGAGAGCUUAGGAAGCAUGAGGGCAACUAUAGUGAGGCCUUAUCAACAGAGGAUUGAGCAUCA
B4: chr8:58583617:58583718:-|3pUTR|ENSG00000035681|unk|total|mutant (ssRNA)
RNA: GGGAGUUCUACAGUCCGACGAUCGUUUUGUCUUCCUAAUCUAUCACAAUUGCCACCCAUCGGGUUUUGGGUGUGUGUUUUCACCGCGUGGUUACUUUCUAUAAUGCUGUACCCAGAUUCUAAGAACCUGGAGAAGGAUCCGCACAACAGAGGAUUGAGCAUCA
B5: ENSG00000089050:stop:overlap|stop_codon|ENSG00000089050|stop_codon|NA|stop_codon (ssRNA)
RNA: GGGAGUUCUACAGUCCGACGAUCAGAACACAGAGUUUCAUGAACUGAUUACUGUUGUAAAGUCUUUGCUGAAAGUACCAGCAUAGACUGUAUGAUUUCUGCUAUUUUGCAUCCCAAUAUAGGAGUAGAAUAAUAUCUACUAUCCAACAGAGGAUUGAGCAUCA
B6: chr19:45712844:45712945:-|CDS|ENSG00000177051|unk|FALSE|bound_elsewhere (ssRNA)
RNA: GGGAGUUCUACAGUCCGACGAUCGGAACAGCGGGCAGCCCUGGCCCUGCAGAGCUACCCACGACCGACCACCCCAGCGCCUGUAGUCUUUGUGUCCGCCGAGCAAGGUGGACCGGCCAAGGGGGUGGGAUCUGAACGGCGGUCCAACAGAGGAUUGAGCAUCA

target: T1, UNK ZnF1-6 (called full-length); assay: nsRBNS (natural sequence RNA bind-n-seq); RBNS binding buffer (assumed for nsRBNS): 25 mM Tris pH 7.5, 150 mM KCl, 3 mM MgCl2, 0.01% Triton X-100, 500 ug/ml BSA, 20 U/ml SUPERase-In, 4 C; UNK is unkempt and MSI1 is Musashi-1; names of the RNAs are library labels; protein concentration not given here; high values mean tight binding

Binder	binding signal
B1	1.28 enrichment R
B2	2.61 enrichment R
B3	13.3 enrichment R
B4	0.474 enrichment R
B5	0.651 enrichment R
B6	0.6 enrichment R
